Results published in the supplement of paper PMC11876631.
± gives the standard deviation of the averaged measurements. Laboratory Escherichia coli strains with one amino-acid change in an essential protein, pooled on minimal glucose agar with carbenicillin or gentamicin at twice the control MIC (plus kanamycin and chloramphenicol for the plasmids), 48 h. Fold change of barcode share against drug-free plates; higher = less susceptible. Active = above 20 in both replicates (the paper's putatively resistant). '<' = one read or none on drug, '>' = one read or none on a drug-free plate. Shares are relative, so most strains fall below 1 when a few take over. Listed are strains with at least 15 reads on both drug-free plates, and hits; most hits rest on fewer reference reads. Replicate rank correlation about 0.5. Edits are read from barcodes.

B1: folE I105D (protein)
chain: MPSLSKEAALVHEALVARGLETPLRPPVHEMDNETRKSLIAGHMTEIMQLLNLDLADDSLMETPHRIAKMYVDEIFSGLDYANFPKITLIENKMKVDEMVTVRDDTLTSTCEHHFVTIDGKATVAYIPKDSVIGLSKINRIVQFFAQRPQVQERLTQQILIALQTLLGTNNVAVSIDAVHYCVKARGIRDATSATTTTSLGGLFKSSQNTRHEFLRAVRHHN
B2: folE L107Q (protein)
chain: MPSLSKEAALVHEALVARGLETPLRPPVHEMDNETRKSLIAGHMTEIMQLLNLDLADDSLMETPHRIAKMYVDEIFSGLDYANFPKITLIENKMKVDEMVTVRDITQTSTCEHHFVTIDGKATVAYIPKDSVIGLSKINRIVQFFAQRPQVQERLTQQILIALQTLLGTNNVAVSIDAVHYCVKARGIRDATSATTTTSLGGLFKSSQNTRHEFLRAVRHHN
B3: folE L107W (protein)
chain: MPSLSKEAALVHEALVARGLETPLRPPVHEMDNETRKSLIAGHMTEIMQLLNLDLADDSLMETPHRIAKMYVDEIFSGLDYANFPKITLIENKMKVDEMVTVRDITWTSTCEHHFVTIDGKATVAYIPKDSVIGLSKINRIVQFFAQRPQVQERLTQQILIALQTLLGTNNVAVSIDAVHYCVKARGIRDATSATTTTSLGGLFKSSQNTRHEFLRAVRHHN
B4: folE V172A (protein)
chain: MPSLSKEAALVHEALVARGLETPLRPPVHEMDNETRKSLIAGHMTEIMQLLNLDLADDSLMETPHRIAKMYVDEIFSGLDYANFPKITLIENKMKVDEMVTVRDITLTSTCEHHFVTIDGKATVAYIPKDSVIGLSKINRIVQFFAQRPQVQERLTQQILIALQTLLGTNNAAVSIDAVHYCVKARGIRDATSATTTTSLGGLFKSSQNTRHEFLRAVRHHN
B5: folE L107A (protein)
chain: MPSLSKEAALVHEALVARGLETPLRPPVHEMDNETRKSLIAGHMTEIMQLLNLDLADDSLMETPHRIAKMYVDEIFSGLDYANFPKITLIENKMKVDEMVTVRDITATSTCEHHFVTIDGKATVAYIPKDSVIGLSKINRIVQFFAQRPQVQERLTQQILIALQTLLGTNNVAVSIDAVHYCVKARGIRDATSATTTTSLGGLFKSSQNTRHEFLRAVRHHN
B6: frr L65A (protein)
chain: MISDIRKDAEVRMDKCVEAFKTQISKIRTGRASPSLLDGIVVEYYGTPTPLRQLASVTVEDSRTAKINVFDRSMSPAVEKAIMASDLGLNPNSAGSDIRVPLPPLTEERRKDLTKIVRGEAEQARVAVRNVRRDANDKVKALLKDKEISEDDDRRSQDDVQKLTDAAIKKIEAALADKEAELMQF
B7: frr I24A (protein)
chain: MISDIRKDAEVRMDKCVEAFKTQASKIRTGRASPSLLDGIVVEYYGTPTPLRQLASVTVEDSRTLKINVFDRSMSPAVEKAIMASDLGLNPNSAGSDIRVPLPPLTEERRKDLTKIVRGEAEQARVAVRNVRRDANDKVKALLKDKEISEDDDRRSQDDVQKLTDAAIKKIEAALADKEAELMQF
B8: frr F20A (protein)
chain: MISDIRKDAEVRMDKCVEAAKTQISKIRTGRASPSLLDGIVVEYYGTPTPLRQLASVTVEDSRTLKINVFDRSMSPAVEKAIMASDLGLNPNSAGSDIRVPLPPLTEERRKDLTKIVRGEAEQARVAVRNVRRDANDKVKALLKDKEISEDDDRRSQDDVQKLTDAAIKKIEAALADKEAELMQF
B9: frr I24W (protein)
chain: MISDIRKDAEVRMDKCVEAFKTQWSKIRTGRASPSLLDGIVVEYYGTPTPLRQLASVTVEDSRTLKINVFDRSMSPAVEKAIMASDLGLNPNSAGSDIRVPLPPLTEERRKDLTKIVRGEAEQARVAVRNVRRDANDKVKALLKDKEISEDDDRRSQDDVQKLTDAAIKKIEAALADKEAELMQF
B10: frr I24P (protein)
chain: MISDIRKDAEVRMDKCVEAFKTQPSKIRTGRASPSLLDGIVVEYYGTPTPLRQLASVTVEDSRTLKINVFDRSMSPAVEKAIMASDLGLNPNSAGSDIRVPLPPLTEERRKDLTKIVRGEAEQARVAVRNVRRDANDKVKALLKDKEISEDDDRRSQDDVQKLTDAAIKKIEAALADKEAELMQF
B11: frr V69P (protein)
chain: MISDIRKDAEVRMDKCVEAFKTQISKIRTGRASPSLLDGIVVEYYGTPTPLRQLASVTVEDSRTLKINPFDRSMSPAVEKAIMASDLGLNPNSAGSDIRVPLPPLTEERRKDLTKIVRGEAEQARVAVRNVRRDANDKVKALLKDKEISEDDDRRSQDDVQKLTDAAIKKIEAALADKEAELMQF
B12: frr F20W (protein)
chain: MISDIRKDAEVRMDKCVEAWKTQISKIRTGRASPSLLDGIVVEYYGTPTPLRQLASVTVEDSRTLKINVFDRSMSPAVEKAIMASDLGLNPNSAGSDIRVPLPPLTEERRKDLTKIVRGEAEQARVAVRNVRRDANDKVKALLKDKEISEDDDRRSQDDVQKLTDAAIKKIEAALADKEAELMQF
B13: frr V117W (protein)
chain: MISDIRKDAEVRMDKCVEAFKTQISKIRTGRASPSLLDGIVVEYYGTPTPLRQLASVTVEDSRTLKINVFDRSMSPAVEKAIMASDLGLNPNSAGSDIRVPLPPLTEERRKDLTKIWRGEAEQARVAVRNVRRDANDKVKALLKDKEISEDDDRRSQDDVQKLTDAAIKKIEAALADKEAELMQF
B14: frr I67A (protein)
chain: MISDIRKDAEVRMDKCVEAFKTQISKIRTGRASPSLLDGIVVEYYGTPTPLRQLASVTVEDSRTLKANVFDRSMSPAVEKAIMASDLGLNPNSAGSDIRVPLPPLTEERRKDLTKIVRGEAEQARVAVRNVRRDANDKVKALLKDKEISEDDDRRSQDDVQKLTDAAIKKIEAALADKEAELMQF
B15: frr V117A (protein)
chain: MISDIRKDAEVRMDKCVEAFKTQISKIRTGRASPSLLDGIVVEYYGTPTPLRQLASVTVEDSRTLKINVFDRSMSPAVEKAIMASDLGLNPNSAGSDIRVPLPPLTEERRKDLTKIARGEAEQARVAVRNVRRDANDKVKALLKDKEISEDDDRRSQDDVQKLTDAAIKKIEAALADKEAELMQF
B16: frr V117Q (protein)
chain: MISDIRKDAEVRMDKCVEAFKTQISKIRTGRASPSLLDGIVVEYYGTPTPLRQLASVTVEDSRTLKINVFDRSMSPAVEKAIMASDLGLNPNSAGSDIRVPLPPLTEERRKDLTKIQRGEAEQARVAVRNVRRDANDKVKALLKDKEISEDDDRRSQDDVQKLTDAAIKKIEAALADKEAELMQF
B17: frr I24Q (protein)
chain: MISDIRKDAEVRMDKCVEAFKTQQSKIRTGRASPSLLDGIVVEYYGTPTPLRQLASVTVEDSRTLKINVFDRSMSPAVEKAIMASDLGLNPNSAGSDIRVPLPPLTEERRKDLTKIVRGEAEQARVAVRNVRRDANDKVKALLKDKEISEDDDRRSQDDVQKLTDAAIKKIEAALADKEAELMQF
B18: frr L65W (protein)
chain: MISDIRKDAEVRMDKCVEAFKTQISKIRTGRASPSLLDGIVVEYYGTPTPLRQLASVTVEDSRTWKINVFDRSMSPAVEKAIMASDLGLNPNSAGSDIRVPLPPLTEERRKDLTKIVRGEAEQARVAVRNVRRDANDKVKALLKDKEISEDDDRRSQDDVQKLTDAAIKKIEAALADKEAELMQF
B19: frr V78A (protein)
chain: MISDIRKDAEVRMDKCVEAFKTQISKIRTGRASPSLLDGIVVEYYGTPTPLRQLASVTVEDSRTLKINVFDRSMSPAAEKAIMASDLGLNPNSAGSDIRVPLPPLTEERRKDLTKIVRGEAEQARVAVRNVRRDANDKVKALLKDKEISEDDDRRSQDDVQKLTDAAIKKIEAALADKEAELMQF
B20: frr I24D (protein)
chain: MISDIRKDAEVRMDKCVEAFKTQDSKIRTGRASPSLLDGIVVEYYGTPTPLRQLASVTVEDSRTLKINVFDRSMSPAVEKAIMASDLGLNPNSAGSDIRVPLPPLTEERRKDLTKIVRGEAEQARVAVRNVRRDANDKVKALLKDKEISEDDDRRSQDDVQKLTDAAIKKIEAALADKEAELMQF

molecular target: Escherichia coli (laboratory strain); assay: barcode share on antibiotic plates over drug-free plates; higher = less susceptible; details: antibiotic: carbenicillin; 2× MIC (3.1 µg/mL)
Description: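 A pool of E. coli strains, each edited to carry one amino-acid change in an essential protein, was grown for 48 h on minimal glucose agar with or without antibiotic; strain barcodes were sequenced; mean of two replicates.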

Row | Protein | fold change of barcode share
1 | B1 | 0.471 ± 0.18
2 | B2 | 0.476 ± 0.1
3 | B3 | 0.224 ± 0.03
4 | B4 | 0.3717 ± 0.0025
5 | B5 | 0.357 ± 0.087
6 | B6 | 0.432 ± 0.062
7 | B7 | 0.371 ± 0.15
8 | B8 | 0.334 ± 0.14
9 | B9 | 1.24 ± 0.24
10 | B10 | 0.745 ± 0.23
11 | B11 | 0.25 ± 0.013
12 | B12 | 0.286 ± 0.048
13 | B13 | 0.281 ± 0.0052
14 | B14 | 0.212 ± 0.09
15 | B15 | 0.376 ± 0.026
16 | B16 | 0.584 ± 0.043
17 | B17 | 0.294 ± 0.065
18 | B18 | 0.412 ± 0.04
19 | B19 | 0.692 ± 0.38
20 | B20 | 1.43 ± 1.2

same assay, conditions: antibiotic: gentamicin; 2× MIC (MIC 0.45 µg/mL)

Row | Protein | fold change of barcode share
21 | B1 | < 0.0191
22 | B2 | < 0.0145
23 | B3 | 0.00839 ± 0.0051
24 | B4 | 0.00963 ± 0.0059
25 | B5 | < 0.00554
26 | B6 | 0.0204 ± 0.012
27 | B7 | 0.00245 ± 0.00058
28 | B8 | < 0.00633
29 | B9 | 0.0687 ± 0.089
30 | B11 | 0.014 ± 0.0065
31 | B12 | < 0.00969
32 | B13 | 0.00341 ± 0.0012
33 | B14 | < 0.0103
34 | B15 | 0.00984 ± 0.0032
35 | B17 | 0.00476 ± 0.0026
36 | B18 | < 0.0129
37 | B19 | < 0.0143
